Data reported in the supplement of paper PMC3334620.
Over roughly 33,000 sequences, “E-score (-0.5 to 0.5)” has its median near -0.013; the highest 2% begin near 0.3. The list shows a part of the results.

target: T1, Msn1 (UniProt P22148); experiment: PBM E-score (8-mer binding enrichment) (E-score (-0.5 to 0.5)); higher = stronger / more preferred TF binding; most listed sequences are background and not binding sites; conditions: protein concentration: 200 nM; construct: GST-full length
T1 sequence: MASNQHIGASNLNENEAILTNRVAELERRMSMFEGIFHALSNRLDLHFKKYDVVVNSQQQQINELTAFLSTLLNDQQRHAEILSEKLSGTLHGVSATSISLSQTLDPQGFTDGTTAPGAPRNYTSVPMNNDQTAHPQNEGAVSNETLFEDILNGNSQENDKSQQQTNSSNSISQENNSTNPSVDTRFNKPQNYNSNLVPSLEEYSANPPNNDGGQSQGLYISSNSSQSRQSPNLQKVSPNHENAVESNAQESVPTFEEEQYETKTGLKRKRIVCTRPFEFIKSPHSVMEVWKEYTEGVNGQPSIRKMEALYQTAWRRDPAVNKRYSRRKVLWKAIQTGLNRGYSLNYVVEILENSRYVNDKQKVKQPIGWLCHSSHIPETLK
In short: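 Masliner-normalised scans of fluorescent anti-GST signal were the basis for scoring. That signal came from GST-tagged yeast transcription factors applied at about 100-200 nM to double-stranded universal all-10-mer Agilent arrays on fresh or once-stripped slides. Each ungapped eight-base word, pooled with its reverse complement, received an E-score from the Universal PBM Analysis Suite.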

| Sequence | PBM E-score |
| --- | --- |
| ACTGATAC | 0.00933 |
| CGGAAGGA | -0.107 |
| ATGGTTCA | 0.0508 |
| CCGCGGTA | 0.0893 |
| CAACGAGA | 0.134 |
| GCTCTTAC | 0.0935 |
| TGCTCAAA | 0.00204 |
| GAGGGTCA | -0.106 |
| GTACATGA | 0.127 |
| CACCACGC | -0.297 |
| CAACGAGG | -0.0281 |
| CATAAGCC | 0.00303 |
| CTGGCATA | -0.0198 |
| TCTAGTCA | 0.161 |
| CGTATGCA | -0.0705 |
| AAAAGAGT | -0.097 |
| AGAGAGGC | -0.34 |
| CAGCCAGA | -0.187 |
| GAAAGCTC | -0.126 |
| ACCGATTG | 0.0992 |
| TAGACAGA | 0.177 |
| AACATGCT | 0.0212 |
| GTAACGAA | 0.0499 |
| CAATATTG | 0.233 |
| AGATTCAA | 0.213 |

| Sequence | PBM E-score |
| --- | --- |
| CGGGGCCC | -0.143 |
| AATTGTCA | 0.359 |
| CCCATACG | -0.118 |
| ACAGTTGG | -0.0246 |
| AAGCATAG | -0.225 |
| GCCTAGTA | -0.087 |
| AGAGTTAC | -0.262 |
| CATTATAA | 0.11 |
| GATGGAAC | -0.125 |
| AATGTTTG | -0.0182 |
| AATGCTCT | -0.0449 |
| CCCTCCTA | -0.156 |
| GCAAATAC | 0.0266 |
| ATTATCGA | -0.0427 |
| GGGGTCGA | -0.313 |
| CATCATAC | 0.0861 |
| GACTGAGC | -0.118 |
| ATATCGAG | -0.00432 |
| ACGAAGCA | -0.0132 |
| CAGCGGGG | -0.241 |
| AAAGACGT | 0.168 |
| CATGGTAG | -0.055 |
| GATACAAA | 0.313 |
| AAAACGGA | 0.142 |
| CATTGTAC | 0.0768 |

| Sequence | PBM E-score |
| --- | --- |
| CGTATCAC | -0.0963 |
| ACAGCAAC | 0.181 |
| GTTTCCTA | 0.0551 |
| ATCCTAAG | -0.124 |
| ACTTCAGC | -0.194 |
| GATAGGAA | -0.147 |
| GGATTACC | -0.223 |
| TGTGACAA | 0.377 |
| TTCCAGAA | 0.168 |
| CTTACCCA | -0.0177 |
| AGGATCAG | -0.12 |
| GAGATACA | 0.266 |
| CTGCAATA | 0.101 |
| AGAACGCT | -0.229 |
| AAGAAATT | 0.216 |
| GACCTACA | 0.0573 |
| GACACGGA | 0.369 |
| CCAATACG | -0.027 |
| AAGCGTGG | 0.148 |
| ATTAGGGG | -0.0891 |
| CGCCCCCA | -0.369 |
| GCCGGGGA | -0.298 |
| GGAGCCAA | -0.0633 |
| AACGCGGA | 0.156 |
| GCTACTAA | -0.0856 |

| Sequence | PBM E-score |
| --- | --- |
| ATAGCATA | -0.0589 |
| ACCCGAAC | 0.0275 |
| AGGGGTTG | -0.2 |
| ATGGTACA | 0.209 |
| GAAGAAGC | -0.116 |
| TGCGACAA | 0.338 |
| CCGCCAGG | -0.117 |
| CAGTGAGC | -0.0953 |
| TCCTCCCA | 0.0597 |
| AGGAAGGG | -0.259 |
| ACTGTAGC | -0.117 |
| AAAAAAAA | 0.108 |
| CTCTAGCA | -0.102 |
| AATCTTGG | 0.0184 |
| CGGCCGTA | -0.064 |
| AGGTACAC | 0.139 |
| TAGACCCA | -0.164 |
| CACCCACA | -0.132 |
| CCACGGGA | -0.157 |
| GATTATCC | 0.0161 |
| CCGGAATC | -0.0855 |
| CGGGGCAC | -0.174 |
| CTACGGCC | -0.213 |
| TGAATGCA | -0.0864 |
| CGTTCCCC | -0.165 |

| Sequence | PBM E-score |
| --- | --- |
| GGTAACGA | -0.0355 |
| ACGTATGA | 0.124 |
| ACGATTTA | 0.164 |
| GGAATCCA | -0.125 |
| AATATCAT | 0.154 |
| ACTCAACT | 0.162 |
| TCCACAAA | 0.162 |
| AATCCTAA | -0.193 |
| GAAAGCTA | -0.154 |
| AGGGGTAG | -0.37 |
| AGACAGTA | 0.0366 |
| GATTTTCA | 0.209 |
| AACGTCTG | 0.0795 |
| CCGCAGGC | 0.146 |
| CATTCGAC | 0.116 |
| ACCCTACA | 0.0246 |
| AAGCAGAA | 0.0216 |
| AATTGGGC | 0.059 |
| CCTAGTGC | 0.0426 |
| AAGCCACT | -0.157 |
| ACCCCTCC | -0.207 |
| ACGAGACT | -0.0395 |
| CTAGCAAA | 0.0474 |
| AAGGAGAT | -0.164 |
| AGAACGCC | 0.00504 |

| Sequence | PBM E-score |
| --- | --- |
| AATGTAAT | 0.193 |
| CCGCGTCC | 0.271 |
| AATGCAAA | -0.035 |
| GATTAACC | 0.0184 |
| GGCATGAA | 0.0635 |
| ACACCCTG | -0.0462 |
| CCCCCGTC | -0.322 |
| AATTCTCG | 0.132 |
| GGCATCTA | 0.0452 |
| GGACGTCA | 0.0166 |
| ACAAACTA | 0.243 |
| ATTCTTAG | 0.077 |
| CTGTAAAA | 0.113 |
| GCTACTCC | -0.102 |
| ACAGTATA | 0.137 |
| AGCTCGAT | 0.0123 |
| GATCTGGA | -0.0195 |
| GAAGCTAA | -0.117 |
| GCTATCAA | 0.041 |
| CGCGCGTA | -0.0102 |
| GTCTACCA | -0.0184 |
| TGTCTCAA | 0.384 |
| AACAAATC | 0.0327 |
| AGGTTATG | -0.00368 |
| AAAAAATA | 0.103 |

| Sequence | PBM E-score |
| --- | --- |
| AGTTCTCA | -0.00554 |
| TATACCAA | 0.102 |
| CGGCGAAG | -0.00612 |
| GTATTGAA | 0.198 |
| TCTGGCAA | 0.123 |
| CTCTCTAC | -0.0266 |
| CCGACACG | -0.0249 |
| ATGGGTGA | -0.0644 |
| GTTCCACA | -0.118 |
| CGGTCGCA | -0.0568 |
| GGGCACCA | -0.208 |
| CACGCCGA | -0.0169 |
| CAAATGGG | 0.167 |
| CGCAGGCA | -0.108 |
| CCAACCAG | -0.191 |
| ATACGTAA | 0.156 |
| ACTGGTTC | -0.0366 |
| CCGCTGCG | -0.148 |
| ACTATTAT | 0.125 |
| GGAGCCAC | -0.369 |
| ATGGTCTC | -0.102 |
| ATCGAGCA | -0.147 |
